According to the supplement of paper PMC9446081:
Screen size: about 39,000 compounds; about 220 (0.56%) showed activity. The list shows a part of the results.

The compounds below were run on Escherichia coli K-12 BW25113 (assay: relative growth (OD600 normalised to plate interquartile mean) (fraction); higher = less growth inhibition, active = 0.2 or less). Settings: 50 µM; LB; incubation time: overnight (16-24 h).
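Further: static incubation at 37 °C against the wild-type strain, values averaged over two biological replicates.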

Compound | relative growth
Cc1noc(C)c1S(=O)(=O)N(C)C[C@@H]1Oc2ccc(NC(=O)Nc3ccc4c(c3)OCO4)cc2C(=O)N([C@@H](C)CO)C[C@@H]1C | inactive: 1.02
COc1ccc(S(=O)(=O)Nc2ccc3c(c2)C(=O)N([C@H](C)CO)C[C@@H](C)[C@H](CN(C)Cc2ccc4c(c2)OCO4)OCCCC[C@@H](C)O3)cc1 | inactive: 0.991
Cc1ccc(S(=O)(=O)N[C@H]2CC[C@@H](CCNC(=O)CN3CCOCC3)O[C@H]2CO)cc1 | inactive: 0.996
COC(=O)Cn1c(=N)n(C)c2ccccc21 | inactive: 0.979
C[C@@H]1CN([C@H](C)CO)C(=O)c2cc(NC(=O)NC3CCCCC3)ccc2O[C@@H](C)CCCCO[C@@H]1CN(C)Cc1ccncc1 | inactive: 0.996
CCCCNc1ccccc1 | inactive: 0.996
COc1ccc(S(=O)(=O)N2C[C@@H](O)COC[C@H]3O[C@@H](CC(=O)NCCCN(C)C)CC[C@@H]32)cc1 | inactive: 1
COc1ccc(S(=O)(=O)N(C)C[C@H]2Oc3c(NC(=O)NC(C)C)cccc3C(=O)N([C@H](C)CO)C[C@@H]2C)cc1 | inactive: 1.03
C[C@H](CO)N1C[C@H](C)[C@@H](CN(C)C(=O)Nc2cccc3ccccc23)Oc2c(NC(=O)CCCCCC(=O)Nc3ccccc3N)cccc2C1=O | inactive: 0.994
CC(C)NC(=O)Nc1ccc2c(c1)C(=O)N([C@H](C)CO)C[C@H](C)[C@@H](CN(C)Cc1ccc(Cl)c(Cl)c1)OCCCC[C@@H](C)O2 | inactive: 0.985
Cc1noc(C)c1S(=O)(=O)Nc1ccc2c(c1)CC(=O)N([C@H](C)CO)C[C@@H](C)[C@@H](CN(C)S(=O)(=O)c1ccc(F)cc1)O2 | inactive: 1.01
C[C@@H]1CN([C@H](C)CO)C(=O)Cc2cc(NC(=O)Nc3ccc(F)cc3)ccc2O[C@@H]1CN(C)Cc1ccc(C(F)(F)F)cc1 | inactive: 1.03
C[C@H]1CN([C@@H](C)CO)C(=O)c2cccc(NS(=O)(=O)c3ccc(F)cc3)c2O[C@@H]1CN(C)Cc1ccc(Oc2ccccc2)cc1 | inactive: 1
C[C@H]1CN([C@@H](C)CO)C(=O)Cc2cc(NC(=O)Nc3ccc(C(F)(F)F)cc3)ccc2O[C@@H]1CN(C)C(=O)NC1CCCCC1 | inactive: 0.954
C[C@@H]1CN([C@H](C)CO)C(=O)Cc2cc(NC(=O)C3CCCCC3)ccc2O[C@H]1CN(C)C(=O)Nc1cccc2ccccc12 | inactive: 0.984
Nc1ncnc2c1ncn2C1OC(COP(=O)(O)O)C(O)C1O (stereo not drawn) | inactive: 1.05
C[C@H]1CN([C@@H](C)CO)C(=O)c2cccc(NC(=O)Nc3ccc4c(c3)OCO4)c2O[C@@H]1CN(C)C(=O)Nc1ccc(C(F)(F)F)cc1 | inactive: 0.947
C[C@@H]1CCCCO[C@H](CN(C)Cc2ccncc2)[C@@H](C)CN([C@H](C)CO)C(=O)c2cc(NS(C)(=O)=O)ccc2O1 | inactive: 0.978
C[C@@H]1CCCCO[C@@H](CN(C)C(=O)Nc2cccc3ccccc23)[C@@H](C)CN([C@@H](C)CO)C(=O)c2cc(NC(=O)NC3CCCCC3)ccc2O1 | inactive: 1.03
COc1ccc(-n2nc(C(=O)NCC(=O)N3CCN(c4ccccc4)CC3)c3ccccc3c2=O)c(OC)c1 | inactive: 1.02
C[C@H]1CCCCO[C@H](CN(C)C(=O)Cc2ccccc2)[C@@H](C)CN([C@@H](C)CO)C(=O)c2cc(NC(=O)c3ccccc3)ccc2O1 | inactive: 1.03

Compound | relative growth
NCCCCCc1nnc(SCC(N)=O)o1 | inactive: 0.989
C[C@@H]1CN([C@@H](C)CO)C(=O)c2cccc(NC(=O)c3ccncc3)c2O[C@H]1CN(C)Cc1ccc(C(=O)O)cc1 | inactive: 1.01
COc1ccc(NC(=O)Nc2ccc3c(c2)[C@H]2C[C@@H](CC(=O)NCc4ccncc4)O[C@@H](CO)[C@H]2O3)cc1 | inactive: 1.03
C[C@@H]1CN([C@@H](C)CO)C(=O)c2cc(NC(=O)CCC(F)(F)F)ccc2O[C@H]1CN(C)Cc1ccc(Cl)c(Cl)c1 | inactive: 1
Nc1nc(=O)c2ncn(COCCO)c2[nH]1 | inactive: 1
CO[C@H](C(=O)N(C)C[C@@H]1OCc2ccccc2-c2c(n(C)c3ccccc23)C(=O)N([C@H](C)CO)C[C@@H]1C)c1ccccc1 | inactive: 0.973
C[C@@H]1COC(=O)[C@H](CC(=O)OC(C)(C)C)CC=CC[C@@H](CC(=O)N[C@@H](CO)Cc2ccccc2)C(=O)N1 | inactive: 0.996
Cc1ccc(S(=O)(=O)Nc2ccc3c(c2)C(=O)N([C@H](C)CO)C[C@@H](C)[C@@H](CN(C)C(=O)c2ccccc2)OCCCC[C@H](C)O3)cc1 | inactive: 1.01
O=S(=O)(NCC[C@H]1CC[C@@H](NS(=O)(=O)c2ccccc2Cl)[C@@H](CO)O1)c1ccc(F)cc1 | inactive: 0.952
CC(C)NC(=O)Nc1cccc2c1O[C@@H](CN(C)Cc1ccc3c(c1)OCO3)[C@H](C)CN([C@H](C)CO)C2=O | inactive: 0.999
CC1(C)CO[C@@H](CC(=O)O)CN1 | inactive: 0.935
C[C@@H]1CN([C@H](C)CO)S(=O)(=O)c2ccc(C#CC(C)(C)O)cc2O[C@@H]1CN(C)C(=O)C1CCCCC1 | inactive: 0.947
COc1ccc(CN(C)C[C@@H]2Oc3ccc(NC(=O)Nc4ccc(C(F)(F)F)cc4)cc3C(=O)N([C@H](C)CO)C[C@H]2C)cc1 | inactive: 0.972
NC1=NN(c2ccccc2)C(=O)C1 | inactive: 0.896
NC[C@H](c1cccc(F)c1)N1CCCCC1 | inactive: 0.951
C[C@@H]1CN([C@H](C)CO)C(=O)Cc2cc(NC(=O)Cc3cn(C)c4ccccc34)ccc2O[C@@H]1CN(C)S(C)(=O)=O | inactive: 1
COCCNC(=O)C[C@@H]1CC[C@H]2[C@@H](COC[C@@H](O)CN2C(=O)Nc2ccc3c(c2)OCO3)O1 | inactive: 0.987
CCNC(=O)CCC(N)C(=O)[O-].[K+] (stereo not drawn) | inactive: 0.934
C[C@@H]1CN([C@H](C)CO)C(=O)CCCn2nncc2CO[C@H]1CN(C)S(=O)(=O)c1cccc(C#N)c1 | inactive: 1.02
CC(C)NC(=O)N(C)C[C@@H]1Oc2ccc(NC(=O)Nc3ccc4c(c3)OCO4)cc2CC(=O)N([C@@H](C)CO)C[C@H]1C | inactive: 0.995
CC[C@@H](C)NC(=O)C1CCNCC1 | inactive: 0.989

Compound | relative growth
CO[C@H]1CN(C)C(=O)c2cc(NC(=O)CC(F)(F)F)ccc2OC[C@@H](C)N(S(=O)(=O)c2cn(C)cn2)C[C@@H]1C | inactive: 1.02
CC(C)NC(=O)N(C)C[C@H]1Oc2ccc(NS(=O)(=O)c3cn(C)cn3)cc2C(=O)N([C@@H](C)CO)C[C@@H]1C | inactive: 0.999
O=C(C[C@@H]1C[C@@H]2c3cc(NS(=O)(=O)c4ccc(F)cc4)ccc3O[C@@H]2[C@@H](CO)O1)N1CCCCC1 | inactive: 1
Cc1noc(C)c1NC(=O)Nc1ccc2c(c1)C(=O)N([C@H](C)CO)C[C@H](C)[C@@H](CN(C)C(=O)Nc1ccccc1)OCCCC[C@H](C)O2 | inactive: 0.971
C[C@@H]1CCCCO[C@H](CN(C)S(=O)(=O)c2ccc(Cl)cc2)[C@H](C)CN([C@H](C)CO)C(=O)c2cc(NC(=O)NC3CCCCC3)ccc2O1 | inactive: 1.03
C[C@H]1CN([C@@H](C)CO)C(=O)c2ccccc2-c2ccccc2CO[C@@H]1CN(C)C(=O)Nc1ccc(F)cc1 | inactive: 0.987
N=C(N)N.O=C(O)O | inactive: 1
COc1ccccc1CNC(=O)C[C@@H]1C[C@H]2c3cc(NC(=O)Nc4ccc(C(F)(F)F)cc4)ccc3O[C@H]2[C@@H](CO)O1 | inactive: 0.993
C=CCOC[C@@H]1CN(C)Cc2nnn(C)c21 | inactive: 0.998
O=C(C[C@@H]1C[C@@H]2c3cc(NC(=O)c4ccc5c(c4)OCO5)ccc3O[C@@H]2[C@@H](CO)O1)NCc1ccccn1 | inactive: 1.02
C/C=C/c1ccc2c(c1)O[C@@H](CN(C)C(=O)c1ccc3c(c1)OCO3)[C@H](C)CN([C@H](C)CO)S2(=O)=O | inactive: 0.997
Cc1noc(C)c1NC(=O)Nc1ccc2c(c1)C(=O)N([C@H](C)CO)C[C@H](C)[C@@H](CN(C)CC1CC1)OCCCC[C@@H](C)O2 | inactive: 0.995
CN(C)Cc1cn(CC[C@@H]2CC[C@@H](NC(=O)Cc3cccnc3)[C@H](CO)O2)nn1 | inactive: 0.991
C[C@H]1CN([C@@H](C)CO)C(=O)c2cc(NS(=O)(=O)c3cn(C)cn3)ccc2O[C@@H]1CN(C)CC1CCCCC1 | inactive: 0.998
Cc1noc(C)c1S(=O)(=O)Nc1cccc2c1O[C@@H](CN(C)S(=O)(=O)c1cn(C)cn1)[C@@H](C)CN([C@H](C)CO)C2=O | inactive: 0.974
COc1ccc(S(=O)(=O)N(C)C[C@H]2Oc3c(NS(=O)(=O)c4ccc(F)cc4)cccc3C(=O)N([C@@H](C)CO)C[C@H]2C)cc1 | inactive: 0.994
COc1cccc(C#Cc2ccc3c(c2)O[C@H](CN(C)S(=O)(=O)c2ccccc2F)[C@@H](C)CN([C@@H](C)CO)S3(=O)=O)c1 | inactive: 1.01
CC(C)NC(=O)N[C@H]1CC[C@H](CCN)O[C@H]1CO | inactive: 1.01
O=C(Oc1cc(O)cc2c1C[C@@H](OC(=O)c1cc(O)c(O)c(O)c1)[C@@H](c1cc(O)c(O)c(O)c1)O2)c1cc(O)c(O)c(O)c1 | inactive: 0.82
C[C@H]1CN([C@@H](C)CO)C(=O)c2cccc(NC(=O)CCCCCC(=O)Nc3ccccc3N)c2O[C@H]1CN(C)C(=O)Nc1ccc(C(F)(F)F)cc1 | inactive: 1.01
Cc1ccc(S(=O)(=O)Nc2ccc3c(c2)C(=O)N([C@@H](C)CO)C[C@@H](C)[C@@H](CN(C)Cc2ccc(Cl)c(Cl)c2)OCCCC[C@@H](C)O3)cc1 | inactive: 1.02
